The text below walks through data of the supplement of paper PMC3334620.

Whole data set: some 33,000 sequences, median “E-score (-0.5 to 0.5)” near -0.032, cut for the highest 2% near 0.36. The list shows a part of the results.

For the experiment, the target named is T1, Sko1 (UniProt Q02100).
T1 sequence: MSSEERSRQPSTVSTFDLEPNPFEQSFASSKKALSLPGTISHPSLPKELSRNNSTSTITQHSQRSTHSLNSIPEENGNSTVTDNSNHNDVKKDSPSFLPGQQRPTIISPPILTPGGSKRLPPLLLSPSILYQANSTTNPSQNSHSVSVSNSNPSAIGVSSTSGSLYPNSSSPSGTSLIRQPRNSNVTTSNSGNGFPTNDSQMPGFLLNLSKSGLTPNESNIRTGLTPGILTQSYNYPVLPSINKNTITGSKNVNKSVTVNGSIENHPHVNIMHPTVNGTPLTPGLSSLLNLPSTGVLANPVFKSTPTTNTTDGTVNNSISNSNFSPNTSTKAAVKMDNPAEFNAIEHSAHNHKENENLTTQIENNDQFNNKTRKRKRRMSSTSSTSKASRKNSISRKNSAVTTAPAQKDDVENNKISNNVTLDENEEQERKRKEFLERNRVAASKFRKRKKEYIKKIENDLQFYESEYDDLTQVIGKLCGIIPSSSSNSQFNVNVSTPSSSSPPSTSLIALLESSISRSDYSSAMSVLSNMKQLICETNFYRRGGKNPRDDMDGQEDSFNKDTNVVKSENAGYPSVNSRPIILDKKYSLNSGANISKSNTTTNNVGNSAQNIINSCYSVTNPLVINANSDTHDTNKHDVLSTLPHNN
Briefly: PBM E-score (8-mer binding enrichment) (E-score (-0.5 to 0.5)); higher = stronger / more preferred TF binding; most listed sequences are background and not binding sites. The settings on record: protein concentration: 200 nM; construct: GST-full length. In outline:
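Detection of bound protein used fluorescent anti-GST, with scans normalised by masliner. The proteins were GST-tagged yeast transcription factors applied at about 100-200 nM to universal all-10-mer Agilent arrays made double-stranded by primer extension. Each ungapped eight-base word, pooled with its reverse complement, was scored with an E-score from the Universal PBM Analysis Suite.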
As to GCTGATCC, the “PBM E-score” value was -0.214.

As to AGAATAAC, the “PBM E-score” value is -0.064. Take AAAATATC: the “PBM E-score” value is 0.11.

Regarding CGGTACAA, the “PBM E-score” value amounted to 0.0925. On to AGAAGCCT, for which the “PBM E-score” value is -0.0527. Consider CGGCCCGC, for which the “PBM E-score” value was -0.223.

As to CGGTAGAG, the “PBM E-score” value is -0.202.

For AGGCTGGC, the “PBM E-score” value is -0.251.

In the case of AGGCCTTG, the “PBM E-score” value was -0.277. For the sequence AAACAACG, the “PBM E-score” value was 0.0853. The result for GAGGTCGA reads -0.137; that for GTGGATAA, 0.0115; that for AACAACCT, -0.00718. For the sequence AGGGTATC, the “PBM E-score” value was -0.12. The result for AACACGTC reads 0.401.

Take GCATCTCC: the “PBM E-score” value is -0.341. The result for GGTAGAAA reads -0.058; that for CGCCAACC, -0.135; that for ACACTCTC, -0.0798.

For AGCGAAAC, the “PBM E-score” value is 0.163. With CCGCCACA, the “PBM E-score” value was -0.233. Regarding CTTTTTCC, the “PBM E-score” value is -0.161. The result for AGATATAT reads 0.193; that for ATTGATCA, 0.0974.

As for AGTGACCC, the “PBM E-score” value was -0.23. CCCAAACA: the “PBM E-score” value was determined as 0.0672.

On to CGCGATTA, for which the “PBM E-score” value turned out to be 0.138. For the sequence AATATCGC, the “PBM E-score” value was 0.133. For CCACGCGC the value was -0.115.

On to CCGTTGTA, for which the “PBM E-score” value was -0.00978.

Turning to GCGTGTAC, the “PBM E-score” value was 0.227. The result for GAGTTTCA reads -0.198. For GATTTCGC, the “PBM E-score” value stood at 0.237.

On to AGTACGTC, for which the “PBM E-score” value is 0.435. For AATACTTG the value was 0.167; for CACGCAGC, 0.0173; for ATAGATCG, -0.0452. Take CTCTAAAA: the “PBM E-score” value amounted to 0.0563. For CAAGTTAG, the “PBM E-score” value was -0.131. Turning to GCAGCTAC, the “PBM E-score” value was 0.166. As for AGGTCAGC, the “PBM E-score” value is 0.085. The result for CGCCTAAA reads -0.0757. Consider TATATCAA, for which the “PBM E-score” value amounted to 0.192.

Consider CCCATGCG, for which the “PBM E-score” value is -0.078. The result for AAGATTTA reads 0.173; that for CAATGTAA, 0.133. The result for AATAGAGT reads -0.109. For the sequence CAAGTGAG, the “PBM E-score” value is -0.121. Take TAAAACGA: the “PBM E-score” value was found to be 0.0152.

ATGTACCC: the “PBM E-score” value was -0.134. The result for ACAACCAG reads -0.0114; that for AGCAGGGA, -0.221; that for AAAACCGA, -0.0633. For TCATGACA the value was 0.319; for GAACGACC, -0.306. The result for CCTGAAGA reads -0.0498; that for ATTAATCA, 0.27; that for TCCCGTCA, 0.218.

Turning to AATGTCTG, the “PBM E-score” value was -0.0959. Regarding AATCGAGG, the “PBM E-score” value was -0.231.

For the sequence CGCGATGA, the “PBM E-score” value came out at 0.303.

Take CTCCACAG: the “PBM E-score” value was -0.31. With CAGCAGAA, the “PBM E-score” value was -0.12. With GCGTCGAA, the “PBM E-score” value is -0.0521.

Turning to CCTGCGAA, the “PBM E-score” value is -0.0899. For CCCATCCC, the “PBM E-score” value was -0.126. The result for CTAACTAG reads 0.0279; that for ATGGCAAA, -0.0313; that for AACATGAG, 0.0764.

In the case of CTACACGA, the “PBM E-score” value is 0.0875. The result for AAACATCC reads 0.0546.

Regarding AGAAGAAC, the “PBM E-score” value was -0.0233.

Consider CGCATGAA, for which the “PBM E-score” value came out at 0.00284. In the case of AATGTATC, the “PBM E-score” value was determined as 0.183. For AGGCACAT the value was 0.0946; for CACACACA, 0.0588. The result for ATGTAGCG reads -0.145; that for AGGCAGTG, -0.0421. Take ACCTCTCG: the “PBM E-score” value is -0.196. Take ATAGAGGA: the “PBM E-score” value is -0.18. The result for ACCGGCCA reads -0.231; that for GAGATCCC, -0.171; that for AGGCCGCC, -0.182.

For GAGATAAA, the “PBM E-score” value was found to be 0.0445. As for ACCTCAGA, the “PBM E-score” value was -0.211. On to AATGGATC, for which the “PBM E-score” value was -0.147. Turning to TGTGGTAA, the “PBM E-score” value amounted to 0.117. Take AGTCACAT: the “PBM E-score” value came out at 0.0771. On to CGTTAAGA, for which the “PBM E-score” value is 0.17. The result for CTCACAAC reads 0.1.

In the case of ATCCTCGA, the “PBM E-score” value was 0.0269. The result for TAATCGGA reads 0.0288; that for AACCGGAC, -0.0878. Turning to CGCGAGAG, the “PBM E-score” value was -0.147.

On to ACGGAAAA, for which the “PBM E-score” value is -0.036. For ATGGTCAC the value was -0.0662. As to ATCCCAGA, the “PBM E-score” value was -0.302. The result for CCACAGAG reads -0.0505. The result for TCTATGAA reads 0.12.

CCAAAACA: the “PBM E-score” value was -0.0759. For the sequence GGCTGCAA, the “PBM E-score” value was -0.261. As to ACCTGCCA, the “PBM E-score” value is -0.13.

As for TGCTTCAA, the “PBM E-score” value is -0.137.

Consider ACATTCCA, for which the “PBM E-score” value stood at 0.184. The result for CAATTTCG reads 0.00535. For ACTAATCA the value was 0.137; for CTGCCGAA, -0.302. As for AATGGAAG, the “PBM E-score” value worked out at 0.122. The result for ACTGGCGA reads -0.315.
